Test results: PubChem BioAssay AID2147 (National Center for Advancing Translational Sciences (NCATS), 2009)
Hit rate of the full screen: of about 230,000 compounds, about 3,600 (1.6%) were called active. Inconclusive means that the source gave no clear call. Such entries were picked first, then a sample of the others. Calls come from the whole dose curve; as a rule, active = well fitted inhibition curve with a large enough effect (not every such curve was filed as active); inconclusive = small, poorly fitted or top-dose-only effect, or another doubt; inactive = no such curve, though single readings can be large or run the other way. Potencies beside an inconclusive call are fits to weak or partial responses and may not hold up.

Target: Lysine-specific demethylase 4E (Homo sapiens) (UniProt B2RXH2)
Chain of UniProt B2RXH2 (B2RXH2 whole entry, looked up, the tested form may be a part): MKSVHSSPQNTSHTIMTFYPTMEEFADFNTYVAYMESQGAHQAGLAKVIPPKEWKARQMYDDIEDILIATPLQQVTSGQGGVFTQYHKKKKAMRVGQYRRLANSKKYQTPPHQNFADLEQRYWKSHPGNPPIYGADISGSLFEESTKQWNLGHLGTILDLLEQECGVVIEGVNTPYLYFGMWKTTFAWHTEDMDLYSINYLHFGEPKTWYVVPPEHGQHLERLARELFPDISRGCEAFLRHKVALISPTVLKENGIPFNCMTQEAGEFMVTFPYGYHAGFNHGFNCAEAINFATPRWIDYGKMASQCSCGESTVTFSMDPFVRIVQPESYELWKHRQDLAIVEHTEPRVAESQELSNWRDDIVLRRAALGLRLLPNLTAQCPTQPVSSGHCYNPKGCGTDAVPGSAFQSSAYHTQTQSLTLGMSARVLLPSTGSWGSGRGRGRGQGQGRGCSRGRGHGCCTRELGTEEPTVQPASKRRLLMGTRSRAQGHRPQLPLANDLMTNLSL
Test: qHTS Assay for Inhibitors of Human Jumonji Domain Containing 2E (JMJD2E)
Settings: JMJD2E catalytic domain, FDH-coupled NADH fluorescence (FDH is formaldehyde dehydrogenase); series mostly up to 57.1 µM
Note: nearly all actives have a fitted effect of over 50% in size.
Potency is the fitted concentration of half-maximal effect; tags give direction and shape of the fitted curve.

Compound | Potency
CCCN1C(=O)SC(CC(=O)Nc2cccc3ccccc23)C1=O (stereo unspecified) | inconclusive: 25.1 µM [inhibitor, single point]
O=C(Cc1ccccc1)N/N=C/c1ccc2c(c1)OCO2 | inconclusive: 39.8 µM [inhibitor, single point]
O=C(NCC1CCCO1)C1CCC(CNS(=O)(=O)c2ccccc2)CC1 (stereo unspecified) | inactive
CC1=C(C(=O)OC(C)C)C(c2cccnc2)C2=C(CC(C)(C)CC2=O)N1 (stereo unspecified) | inconclusive: 28.2 µM [inhibitor, partial curve]
O=C(Cc1ccc(Cl)cc1)Nc1ccc(-c2cc3ccccc3oc2=O)c(Cl)c1 | inconclusive: 25.1 µM [inhibitor, partial curve]
Brc1cc(Br)c2nc(-c3ccc(N4CCOCC4)cc3)ccc2c1 | inconclusive: 10 µM [inhibitor, partial curve]
CCCCCCc1cc2cc(S(=O)(=O)c3ccc(F)cc3)c(=O)oc2cc1O | inconclusive: 6.31 µM [inhibitor, partial curve]
CCN(CC)Cc1c[nH]c2c(C(=O)OC)cccc12 | inconclusive: 0.562 µM [inhibitor, partial curve]
Cc1nc(-c2ccc(C(=O)Nc3cccc(Br)c3)cc2)cs1 | inconclusive: 39.8 µM [inhibitor, single point]
CCC(=O)NNc1ncnc2c1cnn2-c1cccc(C)c1 | inconclusive: 39.8 µM [inhibitor, single point]
COc1ccc(/C=C/C(=O)c2cc3cccc(OC)c3oc2=O)cc1 | inconclusive: 3.98 µM [inhibitor, partial curve, poor fit]
COc1ccc(C(CCN2CCOCC2)c2c(OC)cc(OC)c3c(C)cc(=O)oc23)cc1 (stereo unspecified) | inconclusive: 39.8 µM [inhibitor, single point]
O=C(Nc1ccc(Br)cc1)c1ccc(N2C(=O)C3CC=CCC3C2=O)cc1 (stereo unspecified) | inconclusive: 35.5 µM [inhibitor, single point]
O=C(Cn1cc[n+](CC(=O)c2ccc(Cl)cc2Cl)c1)c1ccc(Cl)cc1Cl | inactive
CC(C)(C)n1nnnc1CN(Cc1ccc(F)cc1)Cc1ccco1 | inactive
Cc1ccc(S(=O)(=O)c2c(N)n(Cc3ccco3)c3nc4ccccc4nc23)cc1C | inconclusive: 28.2 µM [inhibitor, partial curve]
c1coc(-c2nnc3sc(C4CCCCC4)nn23)c1 | inactive
COc1ccccc1NC(=O)C(=O)Nc1ccccn1 | inconclusive: 35.5 µM [inhibitor, single point]
NC(=O)/C=C\c1cn(-c2ccccc2)nc1-c1ccc2c(c1)OCCO2 | inconclusive: 31.6 µM [inhibitor, partial curve]
Cc1ccc(O)c(C(=O)c2cc(C#N)c(=O)n(-c3nccs3)c2)c1 | inconclusive: 20 µM [inhibitor, partial curve]
Nc1n[nH]c2ccccc12 | inconclusive: 25.1 µM [inhibitor, partial curve]
COc1cccc(C(=O)N(Cc2ccccc2)Cc2cc3cc4c(cc3[nH]c2=O)OCCO4)c1 | inconclusive: 25.1 µM [inhibitor, partial curve]
CCC(C)C(NC)C(=O)O (stereo unspecified) | inactive
Cc1ccc(C)c2[nH]c(=O)c(CN(CCN3CCCC3)C(=O)Nc3cccc(Cl)c3)cc12 | inconclusive: 28.2 µM [inhibitor, partial curve]

Compound | Potency
CCc1ccc(C=NC23CN4CN(CN(C4)C2)C3)s1 | inactive
CC1CCN(S(=O)(=O)c2ccc(NC(=O)CSc3ncccc3C(=O)O)cc2)CC1 | inactive
N[C@@H](Cc1ccc(O)c(O)c1)C(=O)O | active: 12.6 µM
COc1ccc(C(=O)Nc2ccc(NC(=O)c3cccs3)c(OC)c2)cc1Cl | inconclusive: 28.2 µM [inhibitor, partial curve]
CN1C(=O)SC(Nc2ccccc2C(=O)O)C1=O (stereo unspecified) | inconclusive: 0.794 µM [inhibitor, single point]
Cc1cc(C(=O)CCl)c(C)n1CCc1ccccc1 | inconclusive: 39.8 µM [inhibitor, single point]
CCOC(=O)C(Oc1ccc2c(-c3ccccc3)cc(=O)oc2c1C)c1ccccc1 (stereo unspecified) | inconclusive: 2.51 µM [inhibitor, single point]
Cc1ccc(-n2cnc3c(sc4nc(N5CCOCC5)c5c(c43)CCCC5)c2=O)cc1 | inconclusive: 28.2 µM [inhibitor, partial curve]
Cc1ccc(-c2c(C#N)c(N)nc3c2CCCCCC3)o1 | inconclusive: 25.1 µM [inhibitor, partial curve]
Cc1snnc1C(=O)NC(=S)Nc1ccccc1 | inactive
CCN(C(=O)c1ccco1)c1nnc(-c2ccc(OC)cc2)s1 | inconclusive: 31.6 µM [inhibitor, partial curve]
O=C(O)c1ccc2c(c1)-c1nc3ccccc3n1C2=O | inconclusive: 22.4 µM [inhibitor, partial curve]
Cc1ccc(-c2ccc(C(=O)NCc3ccc(Cl)cc3)o2)c2ccccc12 | inconclusive: 20 µM [inhibitor, partial curve]
S=c1[nH]c(-c2ccccc2)cn1/N=C/c1cccs1 | inconclusive: 17.8 µM [inhibitor, partial curve]
CCOC(=O)N1CCN(Cc2nc(N)nc(Nc3ccc(Oc4ccccc4)cc3)n2)CC1 | inactive
CSc1ccc(C2C(C#N)=C(N)Oc3c2ccc(=O)c2c(C)oc(C)c32)cc1 (stereo unspecified) | inconclusive: 12.6 µM [inhibitor, partial curve]
Cc1ccc(N(CCC(=O)Nc2nnc(C3CC3)s2)S(=O)(=O)c2ccccc2)cc1 | inactive
O=C(N/N=C/c1ccc(-c2ccccc2Cl)o1)c1ccccc1 | inconclusive: 31.6 µM [inhibitor, single point]
Cc1ccccc1C(=O)Nc1cccc(-c2cn3ccccc3n2)c1 | inconclusive: 35.5 µM [inhibitor, single point]
O=C1NN(c2ccccc2)C(=O)/C1=C\c1ccc(-c2cc([N+](=O)[O-])ccc2O)o1 | inconclusive: 39.8 µM [inhibitor, single point]
c1cncc(-c2nc(N3CCCCCC3)c3ccccc3n2)c1 | inactive
Cc1ccc(NC(=O)C2CC(=O)N(CCc3ccccc3)C2)c(C)c1 (stereo unspecified) | inactive
O=S(=O)(c1cccs1)N1CCN(CC(O)COc2cccc(Br)c2)CC1 (stereo unspecified) | inconclusive: 39.8 µM [inhibitor, single point]
O=C(NCC1CC1)c1ccc(Nc2nc3ccc(Br)cc3[nH]2)cc1 | inconclusive: 28.2 µM [inhibitor, partial curve]

Compound | Potency
Cc1ccc(NC(=O)CCC(=O)c2cccs2)c(O)c1 | inactive
COc1ccc(NCC(=O)N/N=C/c2cc([N+](=O)[O-])ccc2N2CCCC2)cc1 | inactive
CC(C)N1C(=O)/C(=C/c2nc3ccccc3c(=O)n2-c2ccccc2)c2ccccc21 | inconclusive: 35.5 µM [inhibitor, single point]
Cn1c(N)c(C(=O)COC(=O)CC(NC(=O)c2ccccc2Cl)c2ccccc2)c(=O)n(C)c1=O (stereo unspecified) | inconclusive: 39.8 µM [inhibitor, single point]
Cc1ccsc1-c1nc(CSCC(=O)NCCN2CCCC2)c(C)o1 | inconclusive: 28.2 µM [inhibitor, partial curve]
O=[N+]([O-])c1ccccc1N/N=C/c1cc2ccccc2nc1Cl | inactive
Cc1ccccc1C(=O)O/N=C(\N)c1cccc([N+](=O)[O-])c1 | inactive
CCOC(=O)C1CCCN(c2nc3c(C)cccn3c(=O)c2/C=C(\C#N)C(=O)NCc2ccco2)C1 (stereo unspecified) | inconclusive: 35.5 µM [inhibitor, single point]
Cc1ccc(C2=NN(C(=O)CCl)C(c3cccs3)C2)o1 (stereo unspecified) | inconclusive: 35.5 µM [inhibitor, single point]
Cc1ccccc1-n1c(C)nnc1SCC(=O)N1CCc2ccccc2C1 | inactive
COc1cc(/C=C/C(=O)OCC(=O)N2CCN(S(=O)(=O)c3ccc(C)cc3C)CC2)ccc1O | inconclusive: 31.6 µM [inhibitor, single point]
Cc1cc(/C=C2/NC(=O)NC2=O)c(C)n1-c1ccc(C#N)cc1 | inconclusive: 22.4 µM [inhibitor, single point]
Cc1sc2ncnc(SCC(=O)NC3CC3)c2c1C | inconclusive: 39.8 µM [inhibitor, single point]
Cc1ccc(S(=O)(=O)N2CCOCC2)cc1NC(=O)CNCC1CCCCC1 | inconclusive: 25.1 µM [inhibitor, single point]
Cc1cc([N+](=O)[O-])nn1Cc1ccc(C(=O)N/N=C/c2ccc(O)cc2O)cc1 | inconclusive: 35.5 µM [inhibitor, single point]
Fc1cccc(Cl)c1Cn1nnc(-c2ccc(N3CCOCC3)cc2)n1 | inconclusive: 31.6 µM [inhibitor, single point]
COC(=O)c1ccc(CSc2cc(C)c3cccc(C)c3n2)o1 | inactive
COc1ccc(C2C(C#N)=C(N)SC(N)=C2C#N)cc1OC | inactive
CC1CCCC(NC(=O)COC(=O)c2ccc(N(C)C)cc2)C1C (stereo unspecified) | inactive
CC(C)(C)NC(=O)COC(=O)c1cncc(Br)c1 | inactive
O=c1c2ccccc2[nH]c2ccccc12 | inconclusive: 20 µM [inhibitor, partial curve]
COC(=O)c1[nH]c2ccc(C)cc2c1NC(=O)C1=COCCO1 | inconclusive: 39.8 µM [inhibitor, single point]
C/C(=N\NC(=O)COc1ccccc1-c1ccccc1)c1ccccn1 | inconclusive: 35.5 µM [inhibitor, single point]
